Reference: the supplement of paper PMC12632987
In all, about 4,500 sequences were measured (“median log2 fold change of GCK-ALFA target abundance (FLAG IP / Myc IP barcode read proportion)”: median about 0.078, lowest 2% from about -0.6 on). This is one part of the list.

B1: GBRAP_26_5444 (protein)
chain: VEELVDKVRDEMDALIDELLPPELAGPAKAELDTLLLELEEFFEKNINDEEALKKAAEEFLKEFREGLEELGVPEEKREKLVAALEEKLKKMLEELKKEK
B2: GBRAP_78_6670 (protein)
chain: EVEELIDKALEHISKASKIVQKLDADTQLEILGLLVDAASHLLEAEENGFDLKELEEALKELEKALKLLKKLDTEEAKAAAEEVEKAIKAVKEAIKLLKE
B3: GBRAP_74_6556 (protein)
chain: SAELLARMRELREAKDLAGLIELAEENVDKLTPEEAAEALTILATAVVEHFEEMTDEELERAMDAIVRLELKIPNELITDELARLIAEATRLAVERLKEK
B4: GBRAP_74_6532 (protein)
chain: MEEIIKEIEKLIESGKPEDLIEAIRLAREKLDKETRIEILDKIAKKVLEKIDELSYEEVEELLDEFVKLEEELDEEEWTDTQLDALAALAAKAVEYEKEK
B5: GBRAP_160_4523 (protein)
chain: SERLEEIKKKIEEAAEEAIEMIKGQTAEQRATIVDGEFGALAMELALDENATDEEVDVVLKARDKLVATILANPDLTDEEVRELIEKAREEIIKELEKLF
B6: GBRAP_195_5408 (protein)
chain: MKVEYAVLRVTASDTPEQILAKIEKIVKEVKEKSNADLVLVVARDPSVPESVIRDAVAEAEKKYPSIKITVEIFDDISLPLETLEKFAEMLALNEEEEKE
B7: GBRAP_52_6048 (protein)
chain: MRERIRRIVEEILEAVLAGDEERARALLREVFETFSDEELELFIEEMAELARRARPEEFDAVARLVELAVEEAEEAGRPEEFADLLEARVYAALYEAEQR
B8: GBRAP_160_4585 (protein)
chain: SEEKEKAKKIIKEEMEEAKEMVVGESAEQRATIVLGAGGVIIMELDELEEATDELLDFVDEVFDALAAEILANPDLTDEEVNALIDKAEKEMLEAVDKYF
B9: GBRAP_11_2662 (protein)
chain: KLEDLKEAYELARKLAETLKKLIEEGVDNEELQAKAEELLEKLKKLAEEKLSEAIRSEVEVLVELWKEFKADKENRLEYAQQLLAGAQVLAGNLQLEIDE
B10: GBRAP_39_5713 (protein)
chain: DEAEELELLASDLEARFAAYQYEKGISEEEAVAEGLAFWRELAEARPEHREELLALIEEAEELGPEAREALAAGAAGIRAGLPLEEAIAVVRYRFEQLKA
B11: GBRAP_80_6769 (protein)
chain: MEERIKEVLEELEKINPEIAELTKELIKVAKELGVPLELILDFAEAILELAKKDKEKALELVKKALEELKKALEEGDKELAIAILVDAISEALLAVEELE
B12: GBRAP_128_3501 (protein)
chain: SLEEAVAETERLMAEVAEASPEEARRLTEEIVALIASVDRETAEAMADAIEARLPELSPEALDVLADTLRELRPKVDPFIARLLAGIQVEALNQLEELEE
B13: GBRAP_125_2973 (protein)
chain: DREALLEDLRLVALALGLSEEDAEEAAELAAASSVRGTLYAIARALGWEAVADAIERLTEEEAREVLRRVAAAIRADPSLTPEEVRALLLEEAEAAIAAR
B14: GBRAP_11_2898 (protein)
chain: KLELLKKLKELLEKLIELLKKILEEGPEDEKLLEEALKVAEEALKLAEKVLDESDVELMKELLELLKKAKEDPENAEQYLKEALAVARVLLGQVLLEIEE
B15: GBRAP_128_3444 (protein)
chain: SMEEMKERAEKILKEFKEKTKEGPEAAAEFFIEELKKVNLEEAEIITKKVIEYLKKQPIELATKILEEIMRLSKKLSPEKRAIVLEYVSPLLYELEEKEE
B16: GBRAP_160_4691 (protein)
chain: SAKVEAAKKFITEEFEEVVSLFDEVTREELAAAVRVAFGQIRLELEELGLLTDEVDEVIDEEEEKIVNAILTDPNLTKEELKAMLEEAKEKIMAKIEKEA
B17: GBRAP_128_3504 (protein)
chain: STAAAVAEAEALMAAIGEADPETARALVEELVALLAAADPETAQAIADAAIAQLPKLDAEALEIVADTLAALRPSLDPEVANLVADIQVEALNLALEKEE
B18: GBRAP_160_4131 (protein)
chain: KEELKELIEEIKEITEEAIKMIEGESVEEARVIAKVALGEIVMEVESNEAVSEELEEKVGEIADEAEETLEANPDLSVEEIKELLKEAAEKVIELLKKEL
B19: GBRAP_160_4242 (protein)
chain: EERLKRLEEEIREEAEVLLEALLESPKSQWPAFARAAAGDWVQLVIEDPNATEELEEEVDRLAEETAEELVAAKDASPEELRALLERGAERIVEAVRKML

These binders were tested against GABARAP, O95166 (assay: median log2 fold change of GCK-ALFA target abundance (FLAG IP / Myc IP barcode read proportion) (log2 ratio); each designed protein is fused to an ALFA-tag nanobody in HEK293 cells to bring the named protein to FLAG-tagged glucokinase (GCK); Myc marks an untargeted standard; higher = target protein stabilised (more abundant)). Conditions: target protein: 3xFLAG-MCP-GCK-ALFA reporter; HEK293 landing pad (RPLP).
Sequence of GABARAP, O95166 (O95166 whole entry, the tested form may be a part): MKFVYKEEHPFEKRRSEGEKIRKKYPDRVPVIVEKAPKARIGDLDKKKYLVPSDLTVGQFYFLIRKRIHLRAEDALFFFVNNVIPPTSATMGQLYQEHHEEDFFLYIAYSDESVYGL
How it was run: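 HEK293 landing-pad cells received a recombined binder library fused to the ALFA nanobody and were induced with 2 μg mL^−1 doxycycline, then transfected with a plasmid encoding a FLAG-tagged target and a Myc-tagged standard. Lysates were collected after 48 h for anti-FLAG and anti-Myc immunoprecipitation, and the circular RNA barcodes were reverse transcribed, amplified and sequenced. Target abundance for each binder is the median log2 ratio of FLAG to Myc barcode read proportions. Barcodes had to reach a proportion of at least 10^−7 in both replicates, each binder needed at least 3 barcodes per replicate, a pseudocount of 10^−6 was applied, and the two replicates were pooled.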

Binder | median log2 fold change
B1 | 0.245
B2 | 0.0724
B3 | 0.25
B4 | -0.214
B5 | 0.174
B6 | 0.19
B7 | 0.187
B8 | -0.264
B9 | 0.169
B10 | 0.274
B11 | 0.194
B12 | 0.214
B13 | -0.413
B14 | -0.29
B15 | 0.292
B16 | 0.203
B17 | 0.222
B18 | 0.0582
B19 | -0.372
